Results on 98 variants are retold here after a collection of fitness landscapes (doi:10.1016/j.celrep.2020.107928).

Whole data set: some 81,000 sequences, median “one-hybrid fitness for binding NBS DNA” near -0.1, cut for the highest 2% near 0.36. Some of the results follow.

Sequences and labels used below:
B1: Caulobacter ParB omega fusion; a variant is named by its letters at X, in order, B8GW30 (parent)
chain: MESVVVGEPGMSEGRRGLGRGLSALLGEVDAAPAQAPGEQLGGSREAPIEILQRNPDQPRRTFREEDLEDLSNSIREKGVLQPILVRPSPDTAGEYQIVAGERAWRAAQRAGLKTVPIMVRELDDLAVLEIGIIENVQRADLNVLEEALSYKVLMEKFERTQENIAQTIGKSXSHVANXMRLLXLPDEVQSYLVSGELTAXHARAIAAAADPVALAKQIIEGGLSVRETEALARKAPNLSAGKSKGGRPPRVKDTDTQALESDLSSVLGLDVSIDHRGSTGTLTITYATLEQLDDLCNRLTRGI

In this assay the parent is B1. Description: one-hybrid fitness for binding NBS DNA (the Noc-binding site; scaled: cognate 1, non-cognate 0); higher = stronger binding. As to conditions: with NBS DNA site. The method, boiled down: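 In E. coli USO, a HIS3 reporter with its site placed 19 bp from the promoter was used to select Caulobacter ParB variants randomised at four specificity codons. Growth lasted 48 hours at 37°C on histidine-free M9 containing 0.1 mM IPTG and 5 mM 3-AT. Fitness was taken as the log change in variant-to-wild-type read ratio from Illumina sequencing of pre- and post-selection plasmids, rescaled between the non-cognate and cognate sites.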
Turning to QNVK, the “one-hybrid fitness for binding NBS DNA” value was at most 0.2.

As for EYAR, the “one-hybrid fitness for binding NBS DNA” value was at most 0.2.

For LQQY, the “one-hybrid fitness for binding NBS DNA” value is at most 0.2.

As for SKIR, the “one-hybrid fitness for binding NBS DNA” value is at most 0.2.

As to FLNR, the “one-hybrid fitness for binding NBS DNA” value was at most 0.2.

On to VHSI, for which the “one-hybrid fitness for binding NBS DNA” value is at most 0.2.

Take KDSD: the “one-hybrid fitness for binding NBS DNA” value is at most 0.2.

Turning to SRSN, the “one-hybrid fitness for binding NBS DNA” value was at most 0.2.

GCQM: the “one-hybrid fitness for binding NBS DNA” value was at most 0.2.

Regarding MQSG, the “one-hybrid fitness for binding NBS DNA” value was at most 0.2.

Consider NFSG, for which the “one-hybrid fitness for binding NBS DNA” value is at most 0.2.

For the variant SHLM, the “one-hybrid fitness for binding NBS DNA” value was at most 0.2.

On to GKSD, for which the “one-hybrid fitness for binding NBS DNA” value is at most 0.2.

ISYL: the “one-hybrid fitness for binding NBS DNA” value was at most 0.2.

AHDA: the “one-hybrid fitness for binding NBS DNA” value is at most 0.2.

For YHIP, the “one-hybrid fitness for binding NBS DNA” value was at most 0.2.

As for KVTW, the “one-hybrid fitness for binding NBS DNA” value was at most 0.2.

As to AQWS, the “one-hybrid fitness for binding NBS DNA” value is at most 0.2.

Take IGFS: the “one-hybrid fitness for binding NBS DNA” value is at most 0.2.

For LTEQ, the “one-hybrid fitness for binding NBS DNA” value was at most 0.2.

Take ENTM: the “one-hybrid fitness for binding NBS DNA” value was at most 0.2.

For the variant CDVF, the “one-hybrid fitness for binding NBS DNA” value was at most 0.2.

On to QKVN, for which the “one-hybrid fitness for binding NBS DNA” value was at most 0.2.

SLVW: the “one-hybrid fitness for binding NBS DNA” value was at most 0.2.

In the case of RSHK, the “one-hybrid fitness for binding NBS DNA” value was at most 0.2.

As for LCSW, the “one-hybrid fitness for binding NBS DNA” value was at most 0.2.

Take DHNR: the “one-hybrid fitness for binding NBS DNA” value was at most 0.2.

Turning to KAKK, the “one-hybrid fitness for binding NBS DNA” value was at most 0.2.

As for PLCL, the “one-hybrid fitness for binding NBS DNA” value is at most 0.2.

In the case of GQHC, the “one-hybrid fitness for binding NBS DNA” value was at most 0.2.

In the case of LPAG, the “one-hybrid fitness for binding NBS DNA” value is at most 0.2.

On to TVII, for which the “one-hybrid fitness for binding NBS DNA” value is at most 0.2.

KCYL: the “one-hybrid fitness for binding NBS DNA” value was at most 0.2.

As for QYFC, the “one-hybrid fitness for binding NBS DNA” value is at most 0.2.

For HKCG, the “one-hybrid fitness for binding NBS DNA” value is at most 0.2.

For the variant YMDT, the “one-hybrid fitness for binding NBS DNA” value was at most 0.2.

Take YHLS: the “one-hybrid fitness for binding NBS DNA” value is at most 0.2.

In the case of NSWG, the “one-hybrid fitness for binding NBS DNA” value was at most 0.2.

In the case of CCFS, the “one-hybrid fitness for binding NBS DNA” value is at most 0.2.

TSQW: the “one-hybrid fitness for binding NBS DNA” value was at most 0.2.

With ICPC, the “one-hybrid fitness for binding NBS DNA” value was at most 0.2.

In the case of RTCM, the “one-hybrid fitness for binding NBS DNA” value was at most 0.2.

As to EYGR, the “one-hybrid fitness for binding NBS DNA” value was at most 0.2.

Turning to HTPY, the “one-hybrid fitness for binding NBS DNA” value was at most 0.2.

For IGAR, the “one-hybrid fitness for binding NBS DNA” value was at most 0.2.

With MTYW, the “one-hybrid fitness for binding NBS DNA” value was at most 0.2.

Turning to FEAR, the “one-hybrid fitness for binding NBS DNA” value was at most 0.2.

For the variant VTTC, the “one-hybrid fitness for binding NBS DNA” value is at most 0.2.

In the case of SLVL, the “one-hybrid fitness for binding NBS DNA” value was at most 0.2.

Take NYKL: the “one-hybrid fitness for binding NBS DNA” value is at most 0.2.

As to RCCH, the “one-hybrid fitness for binding NBS DNA” value is at most 0.2.

QFKW: the “one-hybrid fitness for binding NBS DNA” value is at most 0.2.

Take ILMT: the “one-hybrid fitness for binding NBS DNA” value was at most 0.2.

As for KTTA, the “one-hybrid fitness for binding NBS DNA” value was at most 0.2.

For the variant GHPT, the “one-hybrid fitness for binding NBS DNA” value was at most 0.2.

Consider HNCG, for which the “one-hybrid fitness for binding NBS DNA” value is at most 0.2.

Regarding KNAC, the “one-hybrid fitness for binding NBS DNA” value is at most 0.2.

Take LMRF: the “one-hybrid fitness for binding NBS DNA” value was at most 0.2.

With RFYA, the “one-hybrid fitness for binding NBS DNA” value is at most 0.2.

Turning to HHLL, the “one-hybrid fitness for binding NBS DNA” value was at most 0.2.

Regarding TDDR, the “one-hybrid fitness for binding NBS DNA” value was at most 0.2.

Consider QESY, for which the “one-hybrid fitness for binding NBS DNA” value was at most 0.2.

On to HRPK, for which the “one-hybrid fitness for binding NBS DNA” value was at most 0.2.

Consider QSCP, for which the “one-hybrid fitness for binding NBS DNA” value was at most 0.2.

AFQW: the “one-hybrid fitness for binding NBS DNA” value was at most 0.2.

VRHK: the “one-hybrid fitness for binding NBS DNA” value is at most 0.2.

SSEH: the “one-hybrid fitness for binding NBS DNA” value was at most 0.2.

Regarding IFTS, the “one-hybrid fitness for binding NBS DNA” value was at most 0.2.

Consider RRWI, for which the “one-hybrid fitness for binding NBS DNA” value amounted to 0.2.

In the case of NYSE, the “one-hybrid fitness for binding NBS DNA” value is at most 0.2.

For HPVM, the “one-hybrid fitness for binding NBS DNA” value was at most 0.2.

NLCA: the “one-hybrid fitness for binding NBS DNA” value is at most 0.2.

Consider QMRE, for which the “one-hybrid fitness for binding NBS DNA” value turned out to be 0.277.

For the variant RAFG, the “one-hybrid fitness for binding NBS DNA” value is at most 0.2.

As for TCWL, the “one-hybrid fitness for binding NBS DNA” value was at most 0.2.

Turning to AAEY, the “one-hybrid fitness for binding NBS DNA” value was at most 0.2.

Take LTKA: the “one-hybrid fitness for binding NBS DNA” value is at most 0.2.

VWTY: the “one-hybrid fitness for binding NBS DNA” value is at most 0.2.

Turning to IMMS, the “one-hybrid fitness for binding NBS DNA” value is at most 0.2.

Turning to VSAK, the “one-hybrid fitness for binding NBS DNA” value was at most 0.2.

For QKCM, the “one-hybrid fitness for binding NBS DNA” value was at most 0.2.

Consider CGRC, for which the “one-hybrid fitness for binding NBS DNA” value is at most 0.2.

Take CGHR: the “one-hybrid fitness for binding NBS DNA” value was at most 0.2.

Consider HVGC, for which the “one-hybrid fitness for binding NBS DNA” value was at most 0.2.

Consider ASPL, for which the “one-hybrid fitness for binding NBS DNA” value is at most 0.2.

Regarding EKYF, the “one-hybrid fitness for binding NBS DNA” value is at most 0.2.

Turning to SCGD, the “one-hybrid fitness for binding NBS DNA” value was at most 0.2.

As to YHQW, the “one-hybrid fitness for binding NBS DNA” value was at most 0.2.

With SRLG, the “one-hybrid fitness for binding NBS DNA” value was at most 0.2.

FMVR: the “one-hybrid fitness for binding NBS DNA” value is at most 0.2.

As for GDSC, the “one-hybrid fitness for binding NBS DNA” value was at most 0.2.

MHPS: the “one-hybrid fitness for binding NBS DNA” value is at most 0.2.

As to LRWK, the “one-hybrid fitness for binding NBS DNA” value is at most 0.2.

With KCTT, the “one-hybrid fitness for binding NBS DNA” value was at most 0.2.

Turning to TNVW, the “one-hybrid fitness for binding NBS DNA” value was at most 0.2.

In the case of ITEL, the “one-hybrid fitness for binding NBS DNA” value is at most 0.2.

On to ILMM, for which the “one-hybrid fitness for binding NBS DNA” value was at most 0.2.

With QIGS, the “one-hybrid fitness for binding NBS DNA” value was determined as 0.295.
